# Test results published in PubChem BioAssay AID504832 (National Center for Advancing Translational Sciences (NCATS), 2011).
# The whole screen tested about 310,000 compounds, of which about 18,000 (5.8%) were called active. The inconclusive results got no clear call from the source; some entries with a clear call stand among them for comparison. The call rests on the fitted dose curve; in most records, active means well fitted inhibition curve with a large enough effect; inconclusive means small, poorly fitted or top-dose-only effect, or another doubt; inactive means no such curve, though single readings can be large or run the other way. No potency is given beside an inconclusive call; the fits are too rough.
# Experiment: Primary qHTS for delayed death inhibitors of the malarial parasite plastid, 48 hour incubation
# Conditions: P. falciparum luciferase growth in erythrocytes; series mostly up to 28.7 µM
# Method in brief: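 Firefly luciferase activity from engineered P. falciparum reports growth; inhibitors lower the luminescent signal. Cultures contained 2% hematocrit erythrocytes at 0.1% final parasitemia.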
# Potency means the concentration at half of the fitted maximal effect; tags describe the fitted curve by direction and shape.
row,SMILES,Potency
1,Cc1nnc(NC(=O)CSCc2c(C)noc2C)s1,inactive
2,COc1ccccc1N(CC(=O)NCCSCc1ccco1)S(=O)(=O)c1ccccc1,"inconclusive [inhibitor, single point]"
3,COC(=O)c1ccc(Cn2nnc3c(=O)[nH]c(C4CCCN(S(=O)(=O)c5ccccc5Cl)C4)nc32)cc1 (configuration not stated),"inconclusive [inhibitor, full curve]"
4,Cc1cc(C)nc(SCc2nnc(SCC(=O)Nc3nc(-c4ccccc4)cs3)n2-c2ccccc2)n1,inactive
5,Cc1ccc(/C=c2\sc3nc(-c4cccs4)nn3c2=O)o1,inactive
6,CCN(CC)S(=O)(=O)c1ccc(N2CCN(C)CC2)c(NC(=O)Nc2ccccc2F)c1,"inconclusive [inhibitor, partial curve, poor fit]"
7,CC(C)(C)OC(=O)N1CCC(c2c(C(=O)N3CCN(C(=O)c4ccco4)CC3)cnn2-c2ccc(F)cc2F)CC1,active: 9.28 µM
8,CC1(C)O[C@@H]2[C@H](O1)[C@@H](CO)O[C@H]2n1c(N2CCCCC2)nc2c(N)ncnc21,inactive
9,Cc1cc(NC(=O)CCCC(=O)N(CC(=O)NC2CCCCC2)c2ccccc2)no1,inactive
10,COCCNC(=O)c1n[nH]c2ccccc12,inactive
11,Cc1cc(Cl)ccc1NC(=O)CN1C(=O)NC2(CCCC2)C1=O,"inconclusive [inhibitor, full curve, poor fit]"
12,CC1OC(OC2C(OC3C(O[C@H]4CC[C@]5(C)C6C=C[C@]78OC[C@@]9(CC[C@@H](C)[C@H](C)C97)[C@H](O)C[C@@]8(C)[C@]6(C)CC[C@H]5C4(C)C)OC(C)C(O)C3O)OC(CO)C(O)C2O)C(O)C(O)C1O (some centres not stated),"inconclusive [inhibitor, partial curve, poor fit]"
13,CCCS(=O)(=O)c1cn2cccc(N)c2c1S(=O)(=O)CCC,inactive
14,CC1CN(S(=O)(=O)c2cccc(-c3csc(-c4ccccc4)n3)c2)CC(C)O1 (configuration not stated),"inconclusive [inhibitor, single point]"
15,O=C(O)CC/C=C\CC[C@@H]1[C@@H](N2CCCCC2)[C@@H](O)C[C@@H]1OCc1ccc(-c2ccccc2)cc1,"inconclusive [inhibitor, partial curve, poor fit]"
16,Cc1ccc(CCNC(=O)C2CCN(S(=O)(=O)c3ccc4nc5c(c(C(=O)O)c4c3)CCCC5)CC2)cc1,"inconclusive [inhibitor, single point]"
17,CCOC(CNC(=O)c1ccc2nc(N3CCC(C)CC3)sc2c1)OCC,"inconclusive [inhibitor, single point]"
